Laboratory results reported in the RNAGym collection of RNA variant scans (doi:10.1073/pnas.2313332121).
This sample is rich in variants without activity.

B1: TPR 5TU (parent)
chain: GGAUCUUCUCGAUCUAACAAAAAAGACAAAUCUGCCACAAAGCUUGAGAGCAUCUUCGGAUGCAGAGGCGGCAGCCUUCGGUGGCGCGAUAGCGCCAACGUUCUCAACUAUGACACGCAAAACGCGUGCUCCGUUGAAUGGAGUUUAUCAUG

Variants of: B1
Assay: polymerase ribozyme fitness, log enrichment relative to wild type (log ratio); higher = more active; in vitro selection for triplet polymerase activity
Outline: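 After PCR construction and transcription, each subunit's mutant library from a heterodimeric triplet polymerase ribozyme was annealed with a biotinylated primer, the partner subunit and triplets. Incubation was frozen, at −7 °C, and extended constructs were gel-excised, bound to streptavidin beads and amplified by RT-PCR, in one selection round done in triplicate. Fitness is the logarithm of a genotype's enrichment divided by that of the wild type, from inverse-variance-weighted replicate averages of Illumina-sequenced inputs and outputs. The base of the logarithm is 2, and genotypes needed ≥10 input reads and ≥1 read per output.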

| Variant | polymerase ribozyme fitness (log ratio) |
| --- | --- |
| GGAUCUUCUCAAUCUAACAAAAUAGACAAAUCUGCCACAAAGCUUGAGAGCAUCUUCGGAUGCAGCGGCGGCAGCCUUCGGUGGCGCGAUAACGCCAACGUUCUCAACUAUGAUACGCAAAACGAGUGCUCCGUUGAAUGGAGUUUAUCAUG | ≤ -4.2 |
| GGAUCUUCUCAAUCUAACAAACAAGACAAAUCUGCCCCAAAGCUUGAGAGCAUCUUCGGAUGCAGAGGCGGCAGCCUUCGGUGGCGCGAUAGCGCGAACGUUCUCCACUAUGACACGCAAAACGCGUGCUCCGUUAAAUGGAGUUUAUCAUG | ≤ -4.2 |
| GGAUCUUCUCAAUCUAUCAAAAAAGACAAAUCUGCCACAAUGCUUGAGAGCAUUUUCGGUAGCAGAGGCGGCAGCCUUCGGUGGCGCGAUAGCGCCAACGUUCUCAACUAUGACACGCAAAACGCGUGCUCCGUUGAAUGGAGUUUAUCAUG | ≤ -4.2 |
| GGAUCUUCUCAAUCUAACAAAAAUGACAAUUCUGCCACAAAGCUUGAGAGCAUCUGCGGAUGCAGAGGCGGCAGCCUUGGGUCGCGCGAAAACGCCAACGUUCUAAACUAUGACACGCAAAACGCGUGCUCCGUUGACUGGAGUUUAUCAUG | ≤ -4.2 |
| GGAUCUUCUCAAUCUAACAAAACAGAUCAAUCUGCCACAAAGCUUGAGAGCAAAUUCGGAUGCAGAGGCGGCAGCCCUCGGUGUCGCGAUAGCGCCAACGUUCUCAACUAUGACACGCAAAACGCGUGCUCCGUUGAAUGGAGUUAAUCAUG | ≤ -4.2 |
| GGAUCUUCUCAAUCUAACAAAAAAGGCAAAUCUGCCACAAAGCUUGAGAGCAUCAUCGGAUGCAGAGGCGGCAGCCUUCGGUGGCGAGAUAGCGCCAACGUUCUCAACUAUGACACGCAAAACCCGUGCUCCGUUGAAUGGACUUUACCAUG | ≤ -4.2 |
| GGAUCUUCUCAAUCUAACAAAAAAGACAAGUCUGCCACAAAGCUUGAGAGCAUCUUCGGAUGCAGAGGCGGCAGCUGUCGACGGCGCCAUAGCGCCAACGGUCUCAACUAUGACACGCAAAACGCGUGCUCCGUUGAAUCGAGUUUAUCAUG | ≤ -4.2 |
| GGAUCUUCUCAAUCUAACAAAAAAGACAACUCUGCCACAAAGCUUGGGAGCAUCUUCGGAAGCAGAGGCGGCAGCCUUCGGUGGCUCGAUAGCGCCAACGUUCUCAACUAUGACACGCAAAACGCGUGCUCCGUUGAAUGGAGUUUAUCAUG | ≤ -4.2 |
| GGAUCUUCUCAAUCUAACAAAAGAGACAAAUCUGCCACAAAGCUUGAGAACAUCUUCGGAUGCAGAGGCGGCAGCCUUCGGUGGCGCGAUAGCGCCAACGUUCUCAACUAUGACACGCAAUACGCGUGCUCCGUUGAAUGGAGUUUAUCAUG | ≤ -4.2 |
| GGAUCUUCUCAAUCUAACAAAAAAGACAAAUCUGCCACGAAGCUUUAGAGUAUCUUCGGAUGCCGAGGCGACAGCCUUCGGUGGCGCGAUAGCGACAACGUUCUCAACUAUGACACGCAAGACGCGUGCUCCGUUGAAUGGAGUUUAUCAUG | ≤ -4.2 |
| GGAUCUUCUCAAUCUAACACAAAAGACACAUCUGCCACAAAGCUUGAAAGCAUCUUCGGAUGCAGAGGCGGCAGCCUUCGGUGGCGCGAUAGCGCCAACGUUCUCAACUAUGACAAGCAAAACGCGUGCUCCGUUGAAUGGAGUUUUUCAUG | ≤ -4.2 |
| GGAUCUUCUCAAUCUAACAAACAAGACAAAUCUGCCACAACGCUUGAGAGCAUCUUCGGAUGCAGAGGCGGCAGCCUUCGGUGGCGGGAUAGCGCCAACGUUCUCAACUAUGACACGCAAAACGCGUGCUCCGUUGAAUGGAGUUUAACAUG | ≤ -4.2 |
| GGAUCUUCUCAAUCUAACACAAAAGACAAAUCUGUCACAAAGCUUGAGAGCAUCUUCGGAUGCAGAGGCGGCAGCCUUCGGUGGCGCGAUAGCGCUAACGUACUCAACUAUGACACGCAAAACGCGUGCUCCGUUGAAUGGAGUUUAUCAUG | ≤ -4.2 |
| GGAUCUUCUCAAUCUAACAAAAAAGCCAAAUCUGCCACAAGGCUUGAGAGCAUCUUCGGAUGCAGAUAUGGCAGCCUUCGGUGGCGCAAUAGCGCCAACGUUCUCAACUAUGACACGCAAAACGCGUGCUCUGUUGAUUGGAGUUUAUCAUG | ≤ -4.2 |
| GGAUCUUCUCAAUCUAACAAAAAAGACAAUUCUGCCACAAAGCUUGAGAGCAUCUUCGGAUGCAGAGGCGGCAGCCUUCGGUGGCGCGAUAGCGCCAACGUUCUGAACUAUGACACGCAAAACGCGUGCUCCGUUGAAUGGAGUUUAUCGUG | ≤ -4.2 |
| GGAUCUUCUCAAUCUAACAAAAAAGACAAAUCUGCCACUAAGCUUGAGAGCAUCUUCGGAUGCAGAGGCGGCAGCCUUCGGUGGCGCGAUAGCGCCCACGUUCUCAACUAUGACACGCAAAACGCGUGCUCCGUUGAAUGGAGUUUAUCAUG | -3.26 |
| GGAUCUUCUCAAUCUAACAAUAAAGACAAAUCUGCCACAAAGCUUGAGAGCAUCUUCGGAUGCAGAGGCGGCAACCAUCGGUGGCGCGAGAGCGCCAACGAUCUCAAGUAUGACACGCAAAACGCGUGCUCCGUUGAAUGGAGUUUAUCAUG | ≤ -4.2 |
| GGAUCUUCUCAAUCUACCAAAAAAGACAAAUCUGCCACAAAGCUUGAGCGCAUCUUCGGAUGCAGAGGCGGCAGCCUUCGGUGGUGCGAUUGCGCCAACGUUCUCAACUAUGACACGCAAAACGCGUGCUCCGUUUAAUGGAGUUUAUCAUG | ≤ -4.2 |
| GGAUCUUCUCAAUCUAACUAAUAAGACAAAUCUGCCACAAAGCUUGAGAGCAUCAUCGGAUGCAGAGGCGGCAGCCUUCGGUGGCGCGAUAGGGUCAACGUUCUCAACUAUGAAACGCAAAACGCGUGCUCCGUGGAAUGGAGUUUAACAUG | ≤ -4.2 |

| Variant | polymerase ribozyme fitness (log ratio) |
| --- | --- |
| GGAUCUUCUCAAUCUAACAAAAAAGACAGAUCUGCCACAAAGCAUGAGAGCAUCUUCGGAUGCAGAGGCGGUAGCCUUCGGUGGCGCGAUAGCUCCAGCGUUCUCUACUAUGACACGCAAUACGCGUGCUCCGUUGAAUGGCGUUUAUCAUG | ≤ -4.2 |
| GGAUCUUCUCAAUCUAACAAAAAAGUCAAAUCUGCCACAAAGCUUCAGAGCAUCUACGGAUGCAGAGGCGGCAGCCUUCGGUGGCGCGAUAGCGCCAACGUUCUCAACUAUGACACGCAAAACGCGUGCUCCGUUGAAUGGAGUUUAUCAUG | ≤ -4.2 |
| GGAUCUUCUCAAUCUAACAAAAUAGACAAAUCUGCCACAAAGCUUGAGAGCAACUUGGGAUGCAGAGGCGGUAGCCUUCGGUGGCUCGAUAGCGCCAACGUUCUCAAAUAUGACACGCAAAACGCGUGCUCCGUUGAAUGGAGUUUAUCAUG | ≤ -4.2 |
| GGAUCUUCUCAAUCUAACUAAAAAGACAAAUCUGCAUCAAAGCUUGAGAGCAUCUUCGGAUGCAGAGGCGGCAGCCUUCGGUGGGGCGAUAGCGCUCACGUUCUCAACUAUGACACGCAAAACGCGUGCUCCGUUUAAUGUAGUUUAUCAUG | ≤ -4.2 |
| GGAUCUUCUCAAUCUAGUAACAAAGACAAAUCUGCCACAAAGCUUGAGACCAUCUUCGGCUGCAGAGGCGGCAGACUUCGGUGGCGCGAUAGCGCCAACGUUCUCAACUAUGACACGCAAAACGCGUGCUCCGUUGAAUGGAGUUUAUCAUG | ≤ -4.2 |
| GGAUCUUCUCAAUCUAACAACAACGACAAAUCUGCCACAAAGUUUGAGAGCAUCUUCGGAUGCAGAGGCGGCAGCCUUCGGUGGAGCGAUAGCGCCAACGUUCUCAACUACGACACGCAAAACGCGUGCUCCGUUGAAUGGAGUUUAUCAUG | ≤ -4.2 |
| GGAUCUUCUCAAUCUAACAUAAAAGGCAAAUCUGCCACAAAGCUUGAGACCAUCUUGGGAUGCAGAGGCGGCAGCCUUCGGUGGCGUGAUAGCGCCAACGUUCUCAACUAUGACACGCAAAACGCGUGCUCCGUUGAAUGGUGUUUAUCAUG | ≤ -4.2 |
| GGAUCUUCUCAAUCUAACAACAAAGACAGAUCCGCCACAAAGCUUGAGAGCAUCUUCGGAUGCAGAGGCGGCAGCCUUCGGUGGCGCGAUAGCGCCAACGUUCUCAACUAUGACACACAAAACGCGUGCUCCGUUGAAUGGAUUUUAUCAUG | ≤ -4.2 |
| GGAUCUUCUCAAUCUAACAAAAACGACUAAUCUGCCACAAAGCUUGAGAGCAUCUUCGGAUGCAGAGGCGGCAGCCUUCGGUGGUGAGAUAGCGCCAACGUUCUCAACUAUGACACGCAAAACGCGUGCUCCGUUGAAUGCAGUUUAUCAUG | ≤ -4.2 |
| GGAUCUUCUCAAUCUAACAAAAAGGACAAAUCUGCCACAAAGCUUGAGAGCAUCUUCGGUUGCAGAGGCGGCAGCCUCCGGUGGCGCGAUAACGCCAACAUUCUCAACUAUGACACGCAAAACGCGUGCUCCGUUGAAUGGAGUUUAUCAUG | ≤ -4.2 |
| GGAUCUUCUCAAUCUAACAAAAAAGACAAAUCUGCCACAGAGCUUGAGCGCAUCUUCGGAAGCAGAGGCGGCAGCCUUCGAUGGCGCGAUAGCGCCAACGUUCUCAACUAUGACACGCAAAACGAGUGCUCCGUUGAAUGGAGUUUAUCAUG | ≤ -4.2 |
| GGAUCUUCUCAAUCUAACAAAAAAGACUAAUCUGCCACAAAGCUUGAGUGCAUCUUCGGAUGCAGAGGCGGCAGCCUUCGGUGGCGCGAUGGUGCCAACGUUCUGAACUAUGACACGCAAAACGCGUGCUCCGUUGAAUGGAGUUUAUCAUG | ≤ -4.2 |
| GGAUCUUCUCAAUCUAACAAAAACGACAAAUCUGCCACAAAGCUUGCGAGCAUCUUCGGAUGAAGAGGCGGCAGCCGUCGGUGACGCGAUAGCGCCAACGUUCUCAACUAUGACACGCAAAACGCCUGCUCCGUUGAAUGGAGUUUAUCAUG | ≤ -4.2 |
| GGAUCUUCUCAAUCUAACAAAAAAGACCAAUCUGCCACAAAGCUUGAGAGCAUCUUCGGAUGCAGAGGCGGCAGCCUUCGGUCGCGCGAUAGCGCCAACGUUCUCAACUAUGACACGCAAAACGCGUUCUCCGUUGAAUGGAGUUAAUCACG | ≤ -4.2 |
| GGAUCUUCUCAAUCUAACAAAAAAGACAAAUCUGCCACUAAGCUUGAGAGCAUCUUCGGAUGCAGAGGCGGCAGCCUUCGGUGGCGCGAUAGCGCCAACGUUCUCAACUAUGACACGCAAAACGCGUGCUCCGUUGAAUGGAGUUUAUCAUG | -3.28 |
| GGAUCUUCUCAAUCUGACAAAAAAGACAAAUCUGCCACAAAGCUUGAGAGCAUCUUCGGAUGCAGAGGCGGGAGCCUUCGGUGGCGCGAUAGAGACAACGUUCUCAACUAUGACACGCAAAACGCGUGCUCCGUUGAAUGGAGUUUAUCAUG | ≤ -4.2 |
| GGAUCUUCUCAAUCUAACAAUAAAGACAAAUCUGCCACAAAGCUUGAGAGCAUCUUCGGAUGCAGAGGCGGCAGCCUUCGGUGGCGAGAUAGCGCCAACGUUCUCAACUAUGACACGCAAAACGCGUGCUCCGUUGAAUGGAGUUUAUCAUG | ≤ -4.2 |
| GGAUCUUCUCAAUCUAACAAAAAAGACAAAUCUGCCACUCAGCUUGAGAGCAUCUUCGGAUGCAGAGGCGGCAGCCUUCGGUGGCGCGAUAGCGCCAACCUUCUCAACUAUGACACGCAAAACGCGUGCUCCGUUGAAUGGAGUUUAUCAUG | ≤ -4.2 |
| GGAUCUUCUCAAUCUAACAAACAAGACUAAUCUGCCACAAAACUUGAGAGCAUCUUCGGAUGCAGAGGCGGCAGCCUUCGGUGGCGCGAUAGCGCCAACGUUCUCUACUAUGACACGCAAAUCACGUGCUCCGUUGAAUGGAGUUUAUCAUG | ≤ -4.2 |
